Reference: the supplement of paper PMC4967469
IC50 is the fitted dose that halves viability relative to control wells, and lower means more sensitive; where the fit passes the top or lowest dose, that dose stands as a limit. AUC sums up the same curve from the lowest dose to the 256-fold higher top dose; it is 1 without any effect and falls as sensitivity rises. For some assays here: A top dose marked as inferred was calculated from the reported fits.

How the values were obtained:
Assay in all cases: Viability of human cancer cell lines after 72 h of drug (GDSC screen)
PIK-93 = compound: CC(=O)Nc1nc(C)c(-c2ccc(Cl)c(S(=O)(=O)NCCO)c2)s1 [PIK-93]; conditions: top dose 20 µM
Protocol: (§1)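 Human cancer cell lines in 384-well plates, medium with 10% serum, drug for 72 h over a 256-fold dose range (nine 2-fold or five 4-fold steps up to the top dose). Adherent lines were fixed and stained with the nucleic acid dye Syto60, suspension lines read with resazurin; signal relative to control wells, capped at 0 and 100%. One two-parameter sigmoid per drug and line, fitted in a mixed model over all curves with the slope shared within a line.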

ABT-263 = compound: CC1(C)CCC(c2ccc(Cl)cc2)=C(CN2CCN(c3ccc(C(=O)NS(=O)(=O)c4ccc(N[C@H](CCN5CCOCC5)CSc5ccccc5)c(S(=O)(=O)C(F)(F)F)c4)cc3)CC2)C1 [ABT-263]; conditions: top dose 2 µM; top dose inferred
Protocol: as §1

piperlongumine = compound: COc1cc(/C=C/C(=O)N2CCC=CC2=O)cc(OC)c1OC [piperlongumine]; conditions: top dose 10 µM
Protocol: as §1

GW843682X = compound: COc1cc2ncn(-c3cc(OCc4ccccc4C(F)(F)F)c(C(N)=O)s3)c2cc1OC [GW843682X]; conditions: top dose 0.256 µM
Protocol: as §1

GW 441756 = compound: Cn1cc(/C=C2\C(=O)Nc3cccnc32)c2ccccc21 [GW 441756]; conditions: top dose 2 µM; top dose inferred
Protocol: as §1

Salubrinal = compound: O=C(/C=C/c1ccccc1)NC(NC(=S)Nc1cccc2cccnc12)C(Cl)(Cl)Cl [Salubrinal]; conditions: top dose 16 µM; top dose inferred
Protocol: as §1

CESS (acute myeloid leukaemia, suspension)
AUC (PIK-93): 0.135
IC50 (PIK-93): 0.114 µM
AUC (ABT-263): 0.936
IC50 (ABT-263): > 2 µM
AUC (piperlongumine): 0.827
IC50 (piperlongumine): 4.96 µM
AUC (GW843682X): 0.352
IC50 (GW843682X): 0.00664 µM
AUC (GW 441756): 0.986
IC50 (GW 441756): > 2 µM
AUC (Salubrinal): 0.872

CP66-MEL (melanoma, adherent)
AUC (PIK-93): 0.956
IC50 (PIK-93): > 20 µM
AUC (ABT-263): 0.959
IC50 (ABT-263): > 2 µM
AUC (piperlongumine): 0.9
IC50 (piperlongumine): > 10 µM
AUC (GW843682X): 0.796
IC50 (GW843682X): 0.14 µM
AUC (GW 441756): 0.916
IC50 (GW 441756): > 2 µM
AUC (Salubrinal): 0.881
IC50 (Salubrinal): > 16 µM

NCI-H1436 (small cell lung carcinoma, suspension)
AUC (PIK-93): 0.885
IC50 (PIK-93): > 20 µM
AUC (ABT-263): 0.912
IC50 (ABT-263): > 2 µM
AUC (piperlongumine): 0.771
IC50 (piperlongumine): 4.38 µM
AUC (GW843682X): 0.801
IC50 (GW843682X): 0.146 µM
AUC (GW 441756): 0.981
IC50 (GW 441756): > 2 µM
AUC (Salubrinal): 0.894
IC50 (Salubrinal): > 16 µM

HA7-RCC (kidney, adherent)
AUC (PIK-93): 0.784
IC50 (PIK-93): 9.45 µM
AUC (ABT-263): 0.766
IC50 (ABT-263): 0.81 µM
AUC (piperlongumine): 0.778
IC50 (piperlongumine): 4.48 µM
AUC (GW843682X): 0.658
IC50 (GW843682X): 0.0461 µM
AUC (GW 441756): 0.856
IC50 (GW 441756): 1.89 µM
AUC (Salubrinal): 0.837
IC50 (Salubrinal): 12.3 µM

COLO-320-HSR (large intestine, suspension)
AUC (PIK-93): 0.557
IC50 (PIK-93): 1.75 µM
AUC (ABT-263): 0.991
IC50 (ABT-263): > 2 µM
AUC (piperlongumine): 0.814
IC50 (piperlongumine): 4.56 µM
AUC (GW843682X): 0.594
IC50 (GW843682X): 0.0279 µM
AUC (GW 441756): 0.989
IC50 (GW 441756): > 2 µM
AUC (Salubrinal): 0.938
IC50 (Salubrinal): > 16 µM

REH (B-cell leukaemia, suspension)
AUC (PIK-93): 0.452
IC50 (PIK-93): 0.93 µM
AUC (ABT-263): 0.46
IC50 (ABT-263): 0.0978 µM
AUC (piperlongumine): 0.793
IC50 (piperlongumine): 4.36 µM
AUC (GW843682X): 0.929
IC50 (GW843682X): > 0.256 µM
AUC (GW 441756): 0.987
IC50 (GW 441756): > 2 µM
AUC (Salubrinal): 0.888
IC50 (Salubrinal): > 16 µM

SUP-HD1 (Hodgkin lymphoma, suspension)
AUC (PIK-93): 0.589
IC50 (PIK-93): 2.17 µM
AUC (ABT-263): 0.205
IC50 (ABT-263): 0.0177 µM
AUC (piperlongumine): 0.777
IC50 (piperlongumine): 3.83 µM
AUC (GW843682X): 0.824
IC50 (GW843682X): 0.143 µM
AUC (GW 441756): 0.987
IC50 (GW 441756): > 2 µM
AUC (Salubrinal): 0.82
IC50 (Salubrinal): 8.65 µM

Raji (Burkitt lymphoma, suspension)
AUC (PIK-93): 0.862
IC50 (PIK-93): 15.3 µM
AUC (ABT-263): 0.987
IC50 (ABT-263): > 2 µM
AUC (piperlongumine): 0.764
IC50 (piperlongumine): 3.41 µM
AUC (GW843682X): 0.874
IC50 (GW843682X): 0.221 µM
AUC (GW 441756): 0.99
IC50 (GW 441756): > 2 µM
AUC (Salubrinal): 0.954
IC50 (Salubrinal): > 16 µM

NCI-H1417 (small cell lung carcinoma, suspension)
AUC (PIK-93): 0.82
IC50 (PIK-93): 14.5 µM
AUC (ABT-263): 0.512
IC50 (ABT-263): 0.136 µM
AUC (piperlongumine): 0.69
IC50 (piperlongumine): 2.39 µM
AUC (GW843682X): 0.852
IC50 (GW843682X): > 0.256 µM
AUC (GW 441756): 0.974
IC50 (GW 441756): > 2 µM
AUC (Salubrinal): 0.977
IC50 (Salubrinal): > 16 µM

SU-DHL-6 (B-cell lymphoma, suspension)
AUC (PIK-93): 0.188
IC50 (PIK-93): 0.209 µM
AUC (ABT-263): 0.705
IC50 (ABT-263): 0.396 µM
AUC (piperlongumine): 0.856
IC50 (piperlongumine): 4.99 µM
AUC (GW843682X): 0.505
IC50 (GW843682X): 0.0164 µM
AUC (GW 441756): 0.993
IC50 (GW 441756): > 2 µM
AUC (Salubrinal): 0.75
IC50 (Salubrinal): 4.12 µM

HCC2157 (breast, suspension)
AUC (PIK-93): 0.953
IC50 (PIK-93): > 20 µM
AUC (ABT-263): 0.717
IC50 (ABT-263): 0.533 µM
AUC (piperlongumine): 0.763
IC50 (piperlongumine): 3.77 µM
AUC (GW843682X): 0.96
IC50 (GW843682X): > 0.256 µM
AUC (GW 441756): 0.872
IC50 (GW 441756): > 2 µM
AUC (Salubrinal): 0.933
IC50 (Salubrinal): > 16 µM
